Values joined by “and” are separate entries in the source; they are usually repeats but may differ in a detail not shown here. Equal values may be shown once. In all, about 350,000 compounds went through this assay and about 260 (0.074%) were called active. Inconclusive means that the source gave no clear call. Such entries were picked first, then a sample of the others. The call rests on the fitted dose curve; in most records, active means well fitted inhibition curve with a large enough effect; inconclusive means small, poorly fitted or top-dose-only effect; inactive means no such curve, though single readings can be large or run the other way. Where the call is inconclusive, the potency comes from a doubtful curve fit.
These molecules were tested against Ferritin light chain (Equus caballus) (UniProt P02791) (assay: qHTS Assay for Identification of Novel General Anesthetics). Details: apoferritin/1-aminoanthracene competitive binding, fluorescence; activity change, negative = displacement: at 77.5 µM (top of the series).
UniProt P02791, sequence (P02791 whole entry, looked up): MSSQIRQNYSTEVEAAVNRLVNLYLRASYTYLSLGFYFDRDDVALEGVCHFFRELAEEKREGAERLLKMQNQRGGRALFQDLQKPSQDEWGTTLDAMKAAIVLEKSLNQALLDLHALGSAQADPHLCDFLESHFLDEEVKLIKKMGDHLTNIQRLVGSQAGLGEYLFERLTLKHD
Summary of the method: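 Probe: 1-aminoanthracene (50% saturated, PBS). Protein: horse-spleen apoferritin, 10 uM. Incubation: 10 min, room temperature. Detection: 380 nm excitation, 535 nm emission. Analysis: normalized response, four-parameter Hill.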
Further: nearly all actives have a fitted effect of over 20% in size.
On the % scale 0 is the no-effect control and ±100 the full control effect; potency means the concentration at half of the fitted maximal effect; tags describe the fitted curve by direction and shape.

SMILES	Potency	activity change, negative = displacement
CCCN(CCC)CCNC(=O)c1ccc2c(c1)NC(=O)C(CS(=O)(=O)Cc1cccc(Br)c1)N2 (stereo not drawn)	inconclusive: 25.1 µM [inhibitor, partial curve]	
CCOc1ccccc1N1CC(c2nc3ccccc3n2Cc2c(C)cc(C)cc2C)CC1=O (stereo not drawn)		inactive: -3.34%
O=C(N/N=C/C=N/NC(=O)c1ccco1)c1ccco1	inconclusive: 25.1 µM [inhibitor, partial curve]	
O=c1oc2ccccc2c(Nc2ccc3ccccc3c2)c1[N+](=O)[O-]	inconclusive: 12.6 µM [inhibitor, full curve]	
COC(=O)Cn1c(C)c(/C=C/c2cc[n+](C)cc2)c2ccccc21		inactive: -4.98%
CCCOc1cccc(C2C(C(=O)c3ccc(C)o3)=C(O)C(=O)N2c2nc(C)c(C(C)=O)s2)c1 (stereo not drawn)	inconclusive: 14.1 µM [inhibitor, partial curve]	
O=[N+]([O-])c1ccc(Cl)cc1CNc1ccc(F)c(F)c1	inconclusive: 20 µM [inhibitor, partial curve]	
C/C(CC(=O)Nc1ccc(Cl)c(Cl)c1)=N\NC(=O)C(=O)N1CCCCC1	inconclusive: 25.1 µM [inhibitor, partial curve]	
COc1ccc(CCNC(=O)c2cn(C)c3ccc(S(=O)(=O)N(C)C4CCCCC4)cc3c2=O)cc1OC	inconclusive: 4.47 µM [inhibitor, full curve, poor fit]	
CN(C)/C=C/C(=O)c1ccc(F)cc1	inconclusive: 17.8 µM [inhibitor, partial curve]	
COc1cc(CNc2ccc(CNc3ncn[nH]3)cc2)ccc1OCc1ccccc1	inconclusive: 5.62 µM [inhibitor, partial curve]	
O=C(NC(=S)NC1CCCCCC1)c1cncc(Br)c1		inactive: -19.9%
CC(=O)c1cccc(NC(=O)COC(=O)COc2ccc(Cl)cc2)c1	inconclusive: 15.8 µM [inhibitor, partial curve]	
Cc1cc(C)n2nc(C(=O)N3CCN(c4ccc([N+](=O)[O-])cc4)CC3)nc2n1	inconclusive: 31.6 µM [inhibitor, single point]	
Cc1occc1C(=O)NC1CCCCCCC1	inconclusive: 28.2 µM [inhibitor, single point]	
COc1cccc(C2=CC(c3cc(Br)ccc3F)n3nnnc3N2)c1 (stereo not drawn)		inactive: -5.38%
COc1cccc(C2C(C#N)=C(N)OC(C(C)(C)C)=C2C#N)c1 (stereo not drawn)	inconclusive: 44.7 µM [inhibitor, partial curve]	
C=CCc1cccc(CNc2cnc3ccccc3c2)c1O		inactive: -22.6%
Cn1cc(C2=C(c3cn(CCCSC(=N)N)c4ccccc34)C(=O)NC2=O)c2ccccc21	inconclusive: 25.1 µM [inhibitor, partial curve] and inconclusive: 31.6 µM [inhibitor, partial curve] and inconclusive: 35.5 µM [inhibitor, single point]	
Cc1ccc(NC(=O)Nc2sc3nc4n(c(=O)c3c2C)CCC(C)CC4)c(Cl)c1 (stereo not drawn)	inconclusive: 2.51 µM [inhibitor, partial curve, poor fit]	
CC(CNC(=O)CN1C(=O)c2cccnc2Oc2ccc(Cl)cc21)c1ccccc1 (stereo not drawn)	inconclusive: 25.1 µM [inhibitor, partial curve]	
O=C(NCc1ccccc1Br)c1ccc2c(c1)OCCO2	inconclusive: 35.5 µM [inhibitor, partial curve]	
COc1ccc(CNc2cccc(F)c2)cc1Br	inconclusive: 31.6 µM [inhibitor, partial curve]	

SMILES	Potency	activity change, negative = displacement
CCC(CC)c1nnc(NC(=O)COc2ccc3c(c2)OCO3)s1	inconclusive: 20 µM [inhibitor, partial curve]	
O=c1[nH]c(N2CCN(Cc3ccccc3)CC2)nc2c1CCC2		inactive: -5.8%
COc1ccc(C(=O)Oc2ccc(/C=N/O)cc2)cc1		inactive: -12.6%
O=C(O)Cc1ccc(C(=O)c2cccs2)s1	inconclusive: 50.1 µM [inhibitor, single point]	
CCN(C(=O)Cn1cnc2onc(-c3ccc(F)cc3)c2c1=O)c1ccc(OC)cc1	inconclusive: 7.94 µM [inhibitor, partial curve]	
O=C(Nc1ccccn1)NC1CCCCC1	inconclusive: 15.8 µM [inhibitor, partial curve]	
NC(=O)C1CC(=O)N(c2ccc(OCc3ccc([N+](=O)[O-])cc3)cc2)C1 (stereo not drawn)	inconclusive: 50.1 µM [inhibitor, single point]	
CCn1c2ccc(OC)cc2c2nc3ccccc3nc21	inconclusive: 28.2 µM [inhibitor, partial curve]	
COc1ccc(OC2C=CC(C#Cc3ccc(F)cc3F)OC2CO)cc1 (stereo not drawn)	inconclusive: 11.2 µM [inhibitor, single point]	
O=C(Nc1nccs1)c1ccc(COc2ccc(Cl)cc2)o1	inconclusive: 17.8 µM [inhibitor, partial curve]	
COc1ccc(-c2nnc(SCC(=O)NC3CCCCC3)nc2-c2ccc(OC)cc2)cc1	inconclusive: 12.6 µM [inhibitor, partial curve, poor fit]	
C=CCCCCCCCCC(=O)NNC1=CC(=O)CC(C)(C)C1	inconclusive: 31.6 µM [inhibitor, partial curve]	
COc1ccc(-c2csc(/C(C#N)=C\c3ccc(O)c([N+](=O)[O-])c3)n2)cc1OC		inactive: -11.4%
CCOc1ccc(Nc2nnc(-n3nc(C)cc3C)c3ccccc23)cc1	inconclusive: 50.1 µM [inhibitor, single point]	
O=C(CSc1nc(O)c(C2CCCCC2)c(=O)[nH]1)N1CCOCC1		inactive: -2.58%
COCCNC(=O)c1cc2c(-c3ccccc3F)nn(C)c2s1		inactive: -1.6%
Cn1cccc1/C=N/NC(=O)c1ccncc1		inactive: 3.5%
Cc1ccccc1Cc1c(C)nc2c(C(=O)NCc3ccco3)cnn2c1C	inconclusive: 17.8 µM [inhibitor, partial curve]	
COc1ccc(NC(=O)CCNS(=O)(=O)c2cccc3nsnc23)cc1Cl		inactive: -9.7%
CCOc1ccccc1CN1CCc2nc(Nc3ccc4c(c3)OCCO4)ncc2C1	inconclusive: 56.2 µM [inhibitor, single point]	
O=C(CSc1nc(Nc2ccc(F)cc2)c2ccccc2n1)c1ccc(F)cc1	inconclusive: 2.24 µM [inhibitor, partial curve]	
Cc1ccc(-c2cc(NC(=O)CCl)n(-c3ccccc3)n2)cc1	inconclusive: 39.8 µM [inhibitor, single point]	
COc1ccc(-c2noc(CCC(=O)Nc3cccnc3)n2)cc1OC		inactive: -10.4%

SMILES	Potency	activity change, negative = displacement
CN1CCN(c2ccccc2NC(=O)c2ccc(-c3cccc(Cl)c3)o2)CC1	inconclusive: 28.2 µM [inhibitor, partial curve]	
Cc1ccc(/C=C2\SC(=S)N(c3cccnc3)C2=O)o1		inactive: -4.48%
Cc1ccc(-n2nnnc2SCn2nnc3ccccc3c2=O)cc1	inconclusive: 25.1 µM [inhibitor, partial curve]	
CC(C)(C)NC(=O)NC(=O)CSc1n[nH]c(-c2ccccc2Br)n1	inconclusive: 39.8 µM [inhibitor, partial curve]	
COc1cccc(-n2nnnc2SCC(=O)Nc2cccc(C)n2)c1	inconclusive: 35.5 µM [inhibitor, partial curve]	
O=C(N/N=C\c1cccnc1)C1c2ccccc2Oc2ccccc21	inconclusive: 31.6 µM [inhibitor, single point]	
CN1CCN(CCC(=O)Nc2ccc3c(c2)OCO3)CC1		inactive: -3.25%
CC(=O)c1ccc(N2CCN(C(=O)C3(S(=O)(=O)c4ccc(Cl)cc4)CC3)CC2)cc1	inconclusive: 31.6 µM [inhibitor, partial curve]	
Fc1cccc(Cn2cc(C(=S)N3CCOCC3)c3ccccc32)c1	inconclusive: 12.6 µM [inhibitor, partial curve]	
CC1CN(S(=O)(=O)c2ccc(NC(=O)c3cc(-c4ccccc4O)n[nH]3)cc2)CC(C)O1 (stereo not drawn)	inconclusive: 6.31 µM [inhibitor, partial curve]	
CCNC(=O)OCC12CC3CC(CC(C3)C1)C2	inconclusive: 28.2 µM [inhibitor, partial curve]	
O=[N+]([O-])c1ccccc1Oc1ccccc1Cl	inconclusive: 56.2 µM [inhibitor, single point]	
CCc1cccc(NC(=O)CN2Cc3ccccc3C2=O)c1	inconclusive: 3.55 µM [inhibitor, single point]	
CC(=O)N1CCc2c(sc3c2c(=O)n(-c2ccc(C)cc2)c(=O)n3Cc2c(F)cccc2Cl)C1	inconclusive: 4.47 µM [inhibitor, full curve]	
O=C(NCc1cccc(Cl)c1)c1ccc(S(=O)(=O)Nc2cccc(C(F)(F)F)c2)cc1		inactive: -23.2%
O=C(NNc1ccc(-c2csnn2)cc1)c1cc(Cl)cc(Cl)c1		inactive: -1.21%
COc1ccccc1NCCC(=O)OCC(=O)NC1CCCCCC1	inconclusive: 25.1 µM [inhibitor, partial curve]	
C1CSC2(N1)C1CC3CC(C1)CC2C3 (stereo not drawn)	inconclusive: 39.8 µM [inhibitor, single point]	
O=c1c(Cl)c(Cl)cnn1-c1ccccc1		inactive: -6.72%
S=c1[nH]nc(-c2ccccn2)n1/N=C/c1ccc(-c2ccccc2Cl)o1	inconclusive: 31.6 µM [inhibitor, partial curve]	
O=C(COC(=O)c1cccs1)c1ccc2c(c1)OCCO2	inconclusive: 22.4 µM [inhibitor, partial curve]	
Cc1cc(F)c(F)c(C(=O)N2C(C)CCCC2C)c1Cl (stereo not drawn)	inconclusive: 25.1 µM [inhibitor, partial curve]	
